Data from the RNAGym collection of RNA variant scans (doi:10.7554/elife.90254).
Read counts are not given, so values of variants with three or more changes are uncertain.

B1: LINE1-mini (parent)
chain: GGCAGAGCUCAACACAGCGUGGCAAAGUGGCUGUGGCUAGACUGCC

Variants of: B1
Assay: self-cleavage, relative activity (ratio to wild type); higher = more cleavage; in vitro, sequencing; the parent is a self-cleaving ribozyme

Row | Variant | self-cleavage
1 | GGCAGAGCACAACACAGCGUGGCAAAGUGGCUGUGGGUAGACUGCG | 0.06
2 | GGCAGAGCACAACACAGCGUGGCAAACUGGCUAUGGCUAGACUGCC | 0.33
3 | GGCAGAGCACAACACAGCGUGGCAAAGUGGUUGUGGCUGGACUGCC | 0.02
4 | GGCAGAGCACAACACAGCGUGGCAAACUGGCUGUGGCUUGACUGCG | 0.08
5 | GGCAGAGCACAACACAGCUUGGCAAAGUGGCUGUAGCUAGACUGUC | 0.04
6 | GGCAGAGCACAACACAGCGUGGCAAAGUGGCUGUUGCUACACUGCC | 0.01
7 | GGCAGAGCACAACACAGCGUGGCAAAGUGGCUGUGGCUAAACUGUC | 0.08
8 | GGCAGAGCACAACACAGCGUGGCAAAGUGACUGCGGCUUGACUCAC | 0.03
9 | GGCAGAGCACAACACAGCCUGGCAAAGUGGCUGUGGCUAGAGGGCC | 0
10 | GGCAGAGCACAACACAGCGUGGUAAAGUGGCUGUUGCUAGACUGCC | 0.07
11 | GGCAGAGCACAACACACCGUGGCAAAUCGGAUUUGGCGAGACUGUC | 0.17
12 | GGCAGAGCACAACACAGCGUGGCAAAGUGGAUGUGGCUAGGCUGCC | 0.07
13 | GGCAGAGCACAACACAGCGUGGCAAAGUCGCUGUGACUAGACUGCC | 0.03
14 | GGCAGAGCACAACACAGCGUGGCAAAGUGACUGUGGCUCGACUGCA | 0.04
15 | GGCAGAGCACAACACAGCGUGGCAAAGUGGCUGUGGGUAUACUUCC | 0.12
16 | GGCAGAGCACAACACAGCGUGGCAAAUUGGCUGUGGCUAGAUUGCC | 0.1
17 | GGCAGAGCACAACACAGCGUUGCAAAGUGGCGGUGGCUAGACUGAC | 0.04
18 | GGCAGAGCACAACACAGCGUCGCAAAGUCGCUGUGGCUAGAGUGCC | 0.03
19 | GGCAGAGCACAACACAGGGUGGCAAAGUGGGUGAGGCUAGACUGCC | 0.07

Row | Variant | self-cleavage
20 | GGCAGAGCACAACACAGCGUGUUAAAGUGGCUUUGGCUAGACUGCC | 0.1
21 | GGCAGAGCACAACACAGCCUGGCAAAGUGGCUGUGGCGAGACUGCC | 0.01
22 | GGCAGAGCACAACACAGCAUGGCAAAGUGGCUGUGGCUAAACUGCC | 0.2
23 | GGCAGAGCACAACACAGCGUGGCAAAGUGGCUUUGGCUAGAUUGCC | 0.03
24 | GGCAGAGCACAACACAGCGUGGCAAAGUGGCUGUGUCUAAACUGCC | 0.03
25 | GGCAGAGCACAACACAUCGUGACAAAGUGGCUGUGGCUAAACUGCU | 0.01
26 | GGCAGAGCACAACACAGCGUGGGAAAGUGGCUGUCGCUAGACUUCC | 0.01
27 | GGCAGAGCACAACACAGUGUGUCAAAGUGGCUGGGGCUAGACUGCC | 0.01
28 | GGCAGAGCACAACACAGCGUGACAAAGUGUCAGUGGAUAGGCUGCC | 0.15
29 | GGCAGAGCACAACACAGCGUGGCAAAGUGGCUGUGUGUAGACUGCC | 0
30 | GGCAGAGCACAACACAGCGUGGCAAAUUUGCUGUGGCUCGACUGCC | 0.06
31 | GGCAGAGCACAACACAGCGUGGCAAAGUGUCUGUGGCUGGUAUGCA | 0.09
32 | GGCAGAGCACAACACAGCGUGGUAAAGUGGCUGUGGCUAGACUGUC | 0.1
33 | GGCAGAGCACAACACAGGGUGGCAAAGUGGCUGUGGCGAGACAGCU | 0.06
34 | GGCAGAGCACAACACAGCGUGGCAAAGUGGCUGUGGUUAGAAUGCC | 0.18
35 | GGCAGAGCACAACACAGCAUGGCAAAGUCGCGGUGGCUAGACUGCA | 0.09
36 | GGCAGAGCACAACACACCGUGACAAAGUGGCUGUGGCUAGACUGCC | 0.03
37 | GGCAGAGCACAACACAGCGUAGCAAAGUGGCCGUGGCUAGACUGCC | 0.12
38 | GGCAGAGCACAACACAGCGUGACAAUGUCGCUGUGGCUAGACUGCC | 0.05

Row | Variant | self-cleavage
39 | GGCAGAGCACAACACAGCGUCGCAAAGUUGCUGUGGCUAGAGUGCC | 0.03
40 | GGCAGAGCACAACACAGCAUGGCAAAGUGGCUUUGGCUAGACAGCC | 0.11
41 | GGCAGAGCACAACACAGCGUGGUAACGUCGCUGUGGCUAGACUGCA | 0.14
42 | GGCAGAGCACAACACAACGUGGCAAAGUGGCUGUAGCUAGACUGCC | 0.2
43 | GGCAGAGCACAACACAGCGUGACAAAGUGGCUGUUGCUAGACUGCC | 0.07
44 | GGCAGAGCACAACACAGCGUUGCAACCUGGCUGUGGCAAGACUGCC | 0.25
45 | GGCAGAGCACAACAUAGCGUGUUAAAGUGGCUGUCGCUAGACUGAC | 0.1
46 | GGCAGAGCACAACACAGCGUGGCAAAGUGGCUGUGGCUAUACUCCC | 0.05
47 | GGCAGAGCACAACACAGCAUGGCAAAGUGGUGGUGGCUAUACUGCC | 0.03
48 | GGCAGAGCACAACACAGCAUGGCAAAGUGUCUGUGGCUAGACUGCC | 1.12
49 | GGCAGAGCACAACACAGCGUGGCAAAGUGCAUGUGGCUAGACUGCC | 0.09
50 | GGCAGAGCACAACACAGCGUCGCAAAGUGGCCAUGCCUAGAAUGCC | 0.03
51 | GGCAGAGCACAACACAGCAUGGCAAAGUGGCUAUGGCUAGACAGCC | 0.18
52 | GGCAGAGCACAACAUAGCGUGGCAAAGUGGCUGUUGCUAGACUGCC | 0.3
53 | GGCAGAGCACAACACAGCGUGGAAAAGUGGCUGUGGCUAGUCUGCC | 0.43
54 | GGCAGAGCACAACACAGCGUGGCAAAGUGGCUGUUGAUAUACUUCU | 0
55 | GGCAGAGCACAACACAGCGUGGGAAAGUGGCCGUGGCUAGACUGCC | 0.12
56 | GGCAGAGCACAACACAGCGUGGGAAAGUGGCAGUGGCUAGACUGCC | 0.09
